Measured values published in PMC9512828.
Results are given in words; binding and its absence hold for the method and conditions named. In cells and extracts the contact can be indirect. Some results given as binding are weak or reduced against the parent protein; the word gives no strength.

Sequences of proteins named here, by UniProt entry; tags and fusion partners are left off. A change or cut given only in a name is not applied to a line headed by its entry. A line that says so, or that is headed by a name, gives the form on record, which may keep a tag or linker. Residues count along the entry.
PTH1R-WT coupled to a C-terminal HaloTag (parathyroid hormone 1 receptor) (Q03431, residues 27-593): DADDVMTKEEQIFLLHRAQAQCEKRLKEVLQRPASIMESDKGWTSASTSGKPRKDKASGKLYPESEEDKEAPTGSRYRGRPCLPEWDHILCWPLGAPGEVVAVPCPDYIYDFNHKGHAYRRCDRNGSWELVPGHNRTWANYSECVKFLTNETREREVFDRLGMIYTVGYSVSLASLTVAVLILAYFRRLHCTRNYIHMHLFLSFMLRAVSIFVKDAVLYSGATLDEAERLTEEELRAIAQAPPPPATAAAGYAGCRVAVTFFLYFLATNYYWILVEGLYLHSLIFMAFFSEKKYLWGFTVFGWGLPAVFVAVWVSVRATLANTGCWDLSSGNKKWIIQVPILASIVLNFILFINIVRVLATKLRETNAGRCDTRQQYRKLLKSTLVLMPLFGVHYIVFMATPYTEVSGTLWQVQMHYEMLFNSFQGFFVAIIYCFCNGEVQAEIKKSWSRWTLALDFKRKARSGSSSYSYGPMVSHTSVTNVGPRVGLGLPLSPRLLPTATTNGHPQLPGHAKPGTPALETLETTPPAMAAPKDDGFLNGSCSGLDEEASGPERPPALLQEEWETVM
PTH1R-PD1 coupled to a C-terminal HaloTag (proximal phosphorylation cluster substituted by alanine) (Q03431, form named): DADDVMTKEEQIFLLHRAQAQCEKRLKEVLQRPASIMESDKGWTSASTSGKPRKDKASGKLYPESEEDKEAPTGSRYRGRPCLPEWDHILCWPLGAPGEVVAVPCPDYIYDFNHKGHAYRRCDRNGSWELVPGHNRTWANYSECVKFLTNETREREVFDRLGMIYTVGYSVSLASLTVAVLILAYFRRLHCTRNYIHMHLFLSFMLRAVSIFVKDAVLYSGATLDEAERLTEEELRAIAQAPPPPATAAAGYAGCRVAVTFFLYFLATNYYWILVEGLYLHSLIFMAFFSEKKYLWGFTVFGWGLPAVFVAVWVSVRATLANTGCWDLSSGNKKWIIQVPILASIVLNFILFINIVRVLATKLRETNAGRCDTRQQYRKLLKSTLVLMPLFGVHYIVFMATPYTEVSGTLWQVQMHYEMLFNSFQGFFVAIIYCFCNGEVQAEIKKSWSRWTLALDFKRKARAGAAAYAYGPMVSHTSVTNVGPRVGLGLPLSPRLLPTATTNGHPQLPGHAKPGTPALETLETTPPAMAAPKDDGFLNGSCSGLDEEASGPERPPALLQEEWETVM
PTH1R-PD2 coupled to a C-terminal HaloTag (distal phosphorylation cluster substituted by alanine) (Q03431, form named): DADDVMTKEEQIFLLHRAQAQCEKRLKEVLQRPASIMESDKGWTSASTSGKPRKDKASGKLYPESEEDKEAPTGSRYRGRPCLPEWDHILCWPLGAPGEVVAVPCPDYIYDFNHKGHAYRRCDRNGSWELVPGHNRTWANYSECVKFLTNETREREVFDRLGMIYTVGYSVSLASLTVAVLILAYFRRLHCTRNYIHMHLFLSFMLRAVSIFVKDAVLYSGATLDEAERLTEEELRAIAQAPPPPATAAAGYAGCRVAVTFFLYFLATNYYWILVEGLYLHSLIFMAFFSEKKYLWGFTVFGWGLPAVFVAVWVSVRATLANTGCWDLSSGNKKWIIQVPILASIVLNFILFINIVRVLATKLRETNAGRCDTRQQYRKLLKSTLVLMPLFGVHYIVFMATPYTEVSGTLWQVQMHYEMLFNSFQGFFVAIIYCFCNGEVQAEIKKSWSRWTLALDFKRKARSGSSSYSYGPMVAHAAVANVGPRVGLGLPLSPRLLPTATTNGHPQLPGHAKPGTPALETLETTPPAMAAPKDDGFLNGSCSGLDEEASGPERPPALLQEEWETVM
UniProt P32120: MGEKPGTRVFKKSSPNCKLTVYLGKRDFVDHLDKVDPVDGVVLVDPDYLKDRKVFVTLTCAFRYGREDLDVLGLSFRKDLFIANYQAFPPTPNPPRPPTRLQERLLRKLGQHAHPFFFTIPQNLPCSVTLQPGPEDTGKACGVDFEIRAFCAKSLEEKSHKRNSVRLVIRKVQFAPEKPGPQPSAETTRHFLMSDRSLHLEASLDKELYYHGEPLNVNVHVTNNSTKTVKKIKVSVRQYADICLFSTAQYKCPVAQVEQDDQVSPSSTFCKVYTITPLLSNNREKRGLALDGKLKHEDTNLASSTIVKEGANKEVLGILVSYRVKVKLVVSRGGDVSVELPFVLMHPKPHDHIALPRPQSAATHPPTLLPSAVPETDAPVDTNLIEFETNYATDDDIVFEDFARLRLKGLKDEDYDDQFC
β-arrestin2-dFLR (finger-loop region Y64 to K78 deleted) C-terminally fused to Nanoluciferase (P32120, form named): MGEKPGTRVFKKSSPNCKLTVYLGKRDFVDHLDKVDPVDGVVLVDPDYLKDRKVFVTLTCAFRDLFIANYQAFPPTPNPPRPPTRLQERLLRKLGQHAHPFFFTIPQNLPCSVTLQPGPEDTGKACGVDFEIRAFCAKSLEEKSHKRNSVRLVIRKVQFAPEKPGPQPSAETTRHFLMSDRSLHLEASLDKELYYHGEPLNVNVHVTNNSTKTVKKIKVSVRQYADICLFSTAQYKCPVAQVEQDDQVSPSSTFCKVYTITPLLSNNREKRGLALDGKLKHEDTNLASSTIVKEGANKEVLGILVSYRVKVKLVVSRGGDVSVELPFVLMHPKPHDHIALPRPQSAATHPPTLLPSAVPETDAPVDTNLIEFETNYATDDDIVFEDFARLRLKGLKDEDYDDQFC

Legend:
[1] = molecular target: PTH1R-PD1 coupled to a C-terminal HaloTag (proximal phosphorylation cluster substituted by alanine) (UniProt Q03431); assay: FRET or BRET; intermolecular NanoBRET recruitment in living ΔQ-GRK cells (GRK2, 3, 5 and 6 quadruple knockout, no GRK overexpressed); PTH1R-HaloTag labelled with Halo-ligand(618) as acceptor, β-arrestin-NanoLuc as donor; stimulated with rising concentrations of PTH(1-34); measuring buffer pH 7.3
[2] = molecular target: PTH1R-PD2 coupled to a C-terminal HaloTag (distal phosphorylation cluster substituted by alanine) (UniProt Q03431); assay: as above
[3] = molecular target: PTH1R-WT coupled to a C-terminal HaloTag (parathyroid hormone 1 receptor) (UniProt Q03431); assay: as above
[4] = molecular target: PTH1R-PD1 coupled to a C-terminal HaloTag (proximal phosphorylation cluster substituted by alanine) (UniProt Q03431); assay: FRET or BRET; intermolecular NanoBRET recruitment in living HEK293 (HEK-WT) cells with endogenous GRKs (also ΔQ-GRK cells with GRK2, 3, 5 or 6 overexpressed); PTH1R-HaloTag labelled with Halo-ligand(618) as acceptor, β-arrestin-NanoLuc as donor; stimulated with rising concentrations of PTH(1-34); measuring buffer 140 mM NaCl, 10 mM HEPES, 5.4 mM KCl, 2 mM CaCl2, 1 mM MgCl2, pH 7.3
[5] = molecular target: PTH1R-PD2 coupled to a C-terminal HaloTag (distal phosphorylation cluster substituted by alanine) (UniProt Q03431); assay: as above
[6] = molecular target: PTH1R-WT coupled to a C-terminal HaloTag (parathyroid hormone 1 receptor) (UniProt Q03431); assay: as above
[7] = molecular target: PTH1R-PD1 coupled to a C-terminal HaloTag (proximal phosphorylation cluster substituted by alanine) (UniProt Q03431); assay: condition: only in ΔQ-GRK cells (GRK2, 3, 5 and 6 knocked out, no GRK overexpressed); FRET or BRET; intermolecular NanoBRET recruitment in living ΔQ-GRK cells (GRK2, 3, 5 and 6 quadruple knockout, no GRK overexpressed); PTH1R-HaloTag labelled with Halo-ligand(618) as acceptor, β-arrestin-NanoLuc as donor; stimulated with rising concentrations of PTH(1-34); measuring buffer pH 7.3
[8] = molecular target: PTH1R-PD2 coupled to a C-terminal HaloTag (distal phosphorylation cluster substituted by alanine) (UniProt Q03431); assay: as above
[9] = molecular target: PTH1R-WT coupled to a C-terminal HaloTag (parathyroid hormone 1 receptor) (UniProt Q03431); assay: as above

binding [1] | binding [2] | binding [3] | binding [4] | binding [5] | binding [6] | binding [7] | binding [8] | binding [9] | Substance
binds | binds | binds | binds | binds | binds |  |  |  | β-arrestin2 WT C-terminally fused to Nanoluciferase (from UniProt P32120 1-420)
 |  |  | binds | binds weakly |  | no binding | no binding | no binding | β-arrestin2-dFLR (finger-loop region Y64 to K78 deleted) C-terminally fused to Nanoluciferase (from UniProt P32120 1-420)
